For some assays here: What follows is the remainder of the data, with few or none of the hits. Results filed as inconclusive are left out. Only a part is listed here, and it is no random draw. The source holds several records for some structures; these can differ, active in one and inactive in another. The source made the active and inactive calls. The calls were made as follows, unless noted: active = hit-call score of the fitted dose curve at least 0.9, where 1 is the maximum; inactive = score below 0.9.
Assays:
[1] = read-out: Matrix Metallopeptidase 1 (MMP1), MMP1 (gene 4312); assay: BSK_BE3C_MMP1: BioMAP Diversity Plus: BE3C Assay for Matrix Metallopeptidase 1 (MMP1) Biomarker Activity (AID 2283024); conditions: actives raise or lower the signal; primary human bronchial epithelial cells
Outline: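 Human primary bronchial epithelial cells (BE3C system) dosed for 24 h; MMP-1 quantified by ELISA. Bidirectional fit against DMSO; cytotoxicity tracked in parallel cultures by SRB total-protein staining.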

[2] = read-out: Urokinase-type plasminogen activator receptor (uPAR), PLAUR (gene 5329); assay: BSK_CASM3C_uPAR: BioMAP Diversity Plus: CASM3C Assay for Urokinase-type plasminogen activator receptor (uPAR) Biomarker Activity (AID 2283054); conditions: actives raise or lower the signal; primary human coronary artery smooth muscle cells;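 also: cell-surface uPAR protein level quantified by ELISA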
[3] = CEETOX_H295R_OHPROG: CeeTox H295R High-throughput Steroidogenesis Assay for OH-Progesterone (OHPROG) (AID 2283435); conditions: actives raise or lower the signal
[4] = CEETOX_H295R_MTT_cell_viability: Viability Assessment in the CeeTox HT-H295R MTT Assay (AID 2283718)
[5] = test system: SRY-box transcription factor 17 (SOX17) Protein Expression, Deisenroth Lab, SOX17 (gene 64321); assay: CCTE_Deisenroth_DEVTOX-GLR_Pluri_SOX17: CCTE's DevTox GLR-Pluri Assay Evaluation of SRY-box transcription factor 17 (SOX17) Protein Expression, Deisenroth Lab (AID 2284427; active = hit-call score of the fitted dose curve at least 0.9, where 1 is the maximum)
Outline: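 Readout: percent SOX17+ cells (SOX17+ count/cell count) by high-content imaging of an inducible fluorescent reporter, corrected for 0.2% DMSO solvent control. RUES2-GLR cells, 48 h differentiation, dosed twice at 24 h intervals, 1 nM - 200 uM.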

[6] = BSK_3C_SRB: Viability Assessment in the BioMAP Diversity Plus: 3C Assay (AID 2283023); conditions: primary human endothelial cells (HUVEC);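 also: cells read 24 h after compound dosing; fitted both ways against DMSO so a hit may be signal rise or drop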
Outline: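 HUVEC, 24 h post-dose; 10% TCA fix, 0.1% SRB stain, A560 nm. Bidirectional curve fit vs DMSO negative control.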

[7] = target: human Thyroid Receptor alpha (THRa1), THRA (gene 7067) (UniProt P10827); assay: ATG_THRa1_TRANS: Attagene TRANS-FACTORIAL HepG2 Assay for human Thyroid Receptor alpha (THRa1) (AID 2283014; active = hit-call score of the fitted dose curve at least 0.9, where 1 is the maximum)
Outline: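 Transient HepG2 transfection, NR-Gal4 chimera driving GAL4-UAS reporters; 24 h compound exposure; total RNA, oligo(dT) RT, PCR, fluorescent primer extension, capillary electrophoresis. Upward direction vs DMSO control.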

[8] = target: human Vitamin D Receptor (VDR), VDR (gene 7421) (UniProt P11473); assay: ATG_VDR_TRANS: Attagene TRANS-FACTORIAL HepG2 Assay for human Vitamin D Receptor (VDR) (AID 2283022; active = hit-call score of the fitted dose curve at least 0.9, where 1 is the maximum)
Outline: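 RT-PCR/capillary electrophoresis read-out of reporter mRNA induction in transiently transfected HepG2; 24 h dosing; chimeric NR-Gal4 (TRANS format); gain-of-signal fit against DMSO baseline.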

[9] = target: guinea pig Serotonin, 5-Hydroxytryptamine Receptor 4 (5HT4), HTR4 (gene 100135548) (UniProt O70528); assay: NVS_GPCR_g5HT4: NovaScreen (NVS) G Protein-Coupled Receptor Assay for guinea pig Serotonin, 5-Hydroxytryptamine Receptor 4 (5HT4) (AID 2283294; active = hit-call score of the fitted dose curve at least 0.9, where 1 is the maximum)
[10] = read-out: adenosine kinase (ADK) gene, ADK (gene 132); assay: LTEA_HepaRG_ADK: Life Technologies and Expression Analysis (LTEA) Assay for adenosine kinase (ADK) gene using HepaRG (AID 2283471); conditions: actives raise or lower the signal; mRNA level, 48 h
Outline: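 Differentiated HepaRG cells dosed 48 h in serum-free induction medium, 0.5% DMSO vehicle, eight half-log concentrations from 100 uM, in duplicate. ADK mRNA by TaqMan qRT-PCR normalised to ACTB, GAPDH, POLR2A; bidirectional fit versus DMSO.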

[11] = read-out: NAD(P)H dehydrogenase [quinone] 1 (NQO1), NQO1 (gene 1728); assay: LTEA_HepaRG_NQO1: Life Technologies and Expression Analysis (LTEA) Assay for NAD(P)H dehydrogenase [quinone] 1 (NQO1) using HepaRG (AID 2283526); conditions: actives raise or lower the signal; mRNA level, 48 h
Outline: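 Differentiated human HepaRG cells in serum-free induction medium, dosed in duplicate for 48 h at 8 half-log concentrations up to 100 uM in 0.5% DMSO. NQO1 mRNA by qRT-PCR normalized to ACTB, GAPDH, POLR2A; bidirectional fit versus DMSO baseline.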

[12] = TOX21_p53_BLA_p5_viability: Viability Assessment in the Tox21 HCT-116 p53 Agonism Beta-lactamase Assay, Phase 5 (AID 2283600; active = hit-call score of the fitted dose curve at least 0.9, where 1 is the maximum)
Outline: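 Compounds, pinned from DMSO at 217-fold dilution, were left on the cells for 16 h. The viability endpoint was ATP content measured by CellTiter-Glo luminescence, where falling signal reflects cytotoxicity.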

[13] = BSK_4H_SRB: Viability Assessment in the BioMAP Diversity Plus: 4H Assay (AID 2283027); conditions: primary human endothelial cells (HUVEC);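 also: cells exposed to compound for 24 h before staining; curves fitted both ways versus DMSO so AC50 may be loss or gain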
Outline: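 Absorbance at 560 nm of SRB-stained total protein served as the viability read-out in confluent primary human umbilical vein endothelium 24 h after chemical treatment. Curves were fitted bidirectionally against DMSO as negative control.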

[14] = read-out: Interferon-gamma inducible Protein 10 (IP10), CXCL10 (gene 3627); assay: BSK_BE3C_IP10: BioMAP Diversity Plus: BE3C Assay for Interferon-gamma inducible Protein 10 (IP10) Biomarker Activity (AID 2283034); conditions: actives raise or lower the signal; primary human bronchial epithelial cells
Outline: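 Primary human bronchial epithelial cells, with IP-10 measured by ELISA 24 hours after chemical dosing. Bidirectional fit against DMSO; cytotoxicity checked by SRB total protein staining in parallel cultures.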

[15] = read-out: Interleukin-8 (IL8), CXCL8 (gene 3576); assay: BSK_CASM3C_IL8: BioMAP Diversity Plus: CASM3C Assay for Interleukin-8 (IL8) Biomarker Activity (AID 2283042); conditions: actives raise or lower the signal; primary human coronary artery smooth muscle cells;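 also: IL-8 protein level quantified by ELISA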
[16] = read-out: TIMP metallopeptidase inhibitor 2 (TIMP2), TIMP2 (gene 7077); assay: BSK_KF3CT_TIMP2: BioMAP Diversity Plus: KF3CT Assay for TIMP metallopeptidase inhibitor 2 (TIMP2) Biomarker Activity (AID 2283071); conditions: actives raise or lower the signal; primary human keratinocytes with fibroblasts
Outline: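 Co-culture of human primary keratinocytes and foreskin fibroblasts, measured 24 h after chemical dosing. TIMP-2 quantified by ELISA and fitted in both directions relative to DMSO. Cytotoxicity checked in parallel cultures by SRB total-protein staining.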

[17] = target: human Opioid Receptor Mu (Opiate Mu), OPRM1 (gene 4988) (UniProt P35372); assay: NVS_GPCR_hOpiate_mu: NovaScreen (NVS) G Protein-Coupled Receptor Assay for human Opioid Receptor Mu (Opiate Mu) (AID 2283290; active = hit-call score of the fitted dose curve at least 0.9, where 1 is the maximum;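 also: hits lower bound tracer signal versus DMSO meaning displacement of the ligand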)
Outline: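 Radioligand displacement binding on membranes from CHO cells expressing the receptor, 2.5 h after dosing, filter-based scintillation counting; loss of signal vs DMSO baseline. Screened in duplicate at 25 uM, actives then run in concentration series.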

[18] = TOX21_p53_BLA_p3_viability: Viability Assessment in the Tox21 HCT-116 p53 Agonism Beta-lactamase Assay, Phase 3 (AID 2283593; active = hit-call score of the fitted dose curve at least 0.9, where 1 is the maximum;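 also: cells exposed to compound for 16 h before reading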)
Outline: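 Cellular ATP was quantified by CellTiter-Glo luminescence, read after 30 min at room temperature. Beforehand, HCT116 cells (4000/well) received compound 5 h post-seeding, 217-fold diluted from DMSO, then incubated 16 h at 37C.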

[19] = target: Cellular tumor antigen p53 (Homo sapiens) (UniProt P04637); assay: TOX21_p53_BLA_p4_ratio: Tox21 HCT-116 p53 Agonism Beta-lactamase Assay, Ratio, Phase 4 (AID 2283601; active = hit-call score of the fitted dose curve at least 0.9, where 1 is the maximum)
Outline: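 Signal is the blue/green (460nm/530nm) ratio of cleaved versus uncleaved CCF4-AM substrate, read after 2 h substrate loading. Cells were HCT116 carrying the p53-responsive beta-lactamase reporter, dosed 16 h at 37C, 5% CO2; CellTiter-Glo measured in parallel.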

Structure (SMILES): O=C1NC(=O)C(c2ccccc2)(c2ccccc2)N1
- outcome [1]: inactive
- outcome [2]: inactive
- outcome [3]: inactive
- outcome [4]: inactive
- AC50 [5]: active: 158 µM

Structure (SMILES): NC(=O)Cn1c(=O)cc(CCN2CCN(c3nccc4sccc34)CC2)c2ccc(F)cc21
- outcome [6]: inactive

Structure (SMILES): COC(=O)C1=C(C)NC(C)=C(C(=O)OCCN(C)Cc2ccccc2)C1c1cccc([N+](=O)[O-])c1 (stereo not given)
- AC50 [7]: active: 33.5 µM

Structure (SMILES): CC(C)c1ccc2c(C(C)C)cc(C(C)C)c(S(=O)(=O)O)c2c1
- outcome [8]: inactive

Structure (SMILES): CCN(CC)C(=O)c1cc(S(=O)(=O)Cc2ccccc2)c(N2CCC(c3ccccc3)CC2)cc1N(CC)CCN(C)C
- AC50 [1]: active: 10.8 µM
- AC50 [9]: active: 10.1 µM
- AC50 [10]: active: 31 µM
- AC50 [11]: active: 28.7 µM
- outcome [12]: inactive

Structure (SMILES): O=C1OC(c2ccc(O)cc2)(c2ccc(O)cc2)c2ccccc21
- AC50 [13]: active: 16.6 µM
- AC50 [14]: active: 20 µM
- outcome [15]: inactive
- AC50 [16]: active: 14.4 µM
- AC50 [17]: active: 1.26 µM
- outcome [18]: inactive
- outcome [19]: inactive

— PubChem BioAssay (EPA / NIEHS)
